From PubChem BioAssay AID624417 (National Center for Advancing Translational Sciences (NCATS), 2012)
Among all 410,000 compounds or so, about 6,400 (1.6%) were called active. Inconclusive results, whose numbers are uncertain, are shown with a selection of clear calls. The call rests on the fitted dose curve; in most records, active means well fitted inhibition curve with a large enough effect; inconclusive means small, poorly fitted or top-dose-only effect; inactive means no such curve, though single readings can be large or run the other way. A potency beside an inconclusive call is a rough fit, not a confirmed value.

target: Glucagon-like peptide 1 receptor (Homo sapiens) (UniProt P43220); test: qHTS of GLP-1 Receptor Inverse Agonists (Inhibition Mode); settings: HEK293 GLP-1R CRE-luciferase, luminescence, 24 h, GLP-1R form is constitutively active; activity change, negative = inhibition: at 38.3 µM (top of the series) unless noted; further: nearly all actives have a fitted effect of over 55% in size
Chain of UniProt P43220 (P43220 whole entry, looked up): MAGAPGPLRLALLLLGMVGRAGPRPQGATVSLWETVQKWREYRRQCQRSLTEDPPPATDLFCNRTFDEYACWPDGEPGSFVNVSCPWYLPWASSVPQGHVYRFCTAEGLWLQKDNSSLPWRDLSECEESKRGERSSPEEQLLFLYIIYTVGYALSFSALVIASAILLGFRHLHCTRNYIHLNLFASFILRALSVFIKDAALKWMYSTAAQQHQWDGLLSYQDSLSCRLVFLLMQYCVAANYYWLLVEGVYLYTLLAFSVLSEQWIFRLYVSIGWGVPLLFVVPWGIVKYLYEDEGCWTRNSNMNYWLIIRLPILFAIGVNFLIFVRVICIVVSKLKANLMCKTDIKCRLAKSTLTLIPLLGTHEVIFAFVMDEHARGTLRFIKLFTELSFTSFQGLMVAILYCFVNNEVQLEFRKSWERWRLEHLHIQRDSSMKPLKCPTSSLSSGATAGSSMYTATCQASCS
Method in brief: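 HEK293 cells stably co-expressing constitutively active GLP-1R and a cAMP-responsive luciferase reporter were seeded in DMEM with 10% Nu serum, given compounds after 12 h, and incubated 24 h at 37 deg C. Luminescence was then read.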
On the % scale 0 is the no-effect control and ±100 the full control effect; potency means the concentration at half of the fitted maximal effect; tags describe the fitted curve by direction and shape.

Potency, inconclusive:
Fc1ccc(Nc2nc(SCc3ccc(Cl)cc3)nc3ccccc23)cc1 12.6 µM [inhibitor, partial curve, poor fit]
Cc1nc(Oc2ccccc2)c2oc3ccccc3c2n1 11.2 µM [inhibitor, partial curve, poor fit]
COc1ccc(S(=O)(=O)N(Cc2nc(-c3ccccc3)no2)C2CCCCC2)cc1 11.2 µM [inhibitor, partial curve, poor fit]
C=CCc1ccc(OCCOCCN(C)C)c(OC)c1 8.91 µM [inhibitor, partial curve, poor fit]
O=C(COC(=O)c1ccccc1C(=O)c1ccccc1)NCCc1ccccc1 28.2 µM [inhibitor, single point]
CSc1ccc(/C=N/N2CCN(C)CC2)cc1 28.2 µM [inhibitor, single point]
O=C1C=C(Nc2ccc(Cl)cc2)CC(c2ccccc2)C1 (configuration not stated) 3.98 µM [inhibitor, partial curve, poor fit]
Cc1cccc(N2CCN(CC(=O)NCC3CCCCC3)CC2)c1C 12.6 µM [inhibitor, partial curve, poor fit]
O=C(Nc1cccc([N+](=O)[O-])c1)N1CCN(c2ccccc2)CC1 28.2 µM [inhibitor, single point]
CCc1nc2c(OCc3ccc(C(F)(F)F)cc3)cccn2c1N(C)C(=O)c1ccco1 14.1 µM [inhibitor, partial curve, poor fit]
O=C(C1CCCN(S(=O)(=O)c2ccc(Br)cc2)C1)N1CCN(Cc2ccccc2)CC1 (configuration not stated) 6.31 µM [inhibitor, full curve, poor fit]
COCCNC(=S)N/N=C(\C)c1ccccc1F 12.6 µM [inhibitor, partial curve, poor fit]
CN1CCCN(Cc2nc(-c3cccc(C(F)(F)F)c3)no2)CC1 1 µM [inhibitor, full curve, poor fit]
COc1ccccc1Cn1c(-c2ccccc2OC)nc2ccccc21 11.2 µM [inhibitor, partial curve, poor fit]
COc1cc(OC)nc(Nc2nc(C(N)Cc3ccccc3)cs2)n1 (configuration not stated) 6.31 µM [inhibitor, partial curve]
Cc1cc(C)c(-c2csc(NC(=O)C3=COCCO3)n2)cc1C 22.4 µM [inhibitor, single point]
Cc1ccc(CN2CCC(C(=O)Nc3ccc(Oc4cccnc4)cc3)CC2)cc1 10 µM [inhibitor, partial curve, poor fit]
COC(=O)[C@@]12C[C@@H](CC(=O)NCCCCc3ccccc3)C(=O)N(Cc3ccccc3)C1=CCC(C)(C)C2 28.2 µM [inhibitor, partial curve, poor fit]
O=C(C/C(=N\NC(=O)c1ccccc1Br)C(F)(F)F)c1cccs1 11.2 µM [inhibitor, partial curve, poor fit]
CCN1CCCC1CN(Cc1cc2ccc(C)cc2[nH]c1=O)C(=S)Nc1ccccc1OC (configuration not stated) 10 µM [inhibitor, partial curve, poor fit]
CCc1ccccc1N1CC(c2nc3ccccc3n2CCCCOc2ccccc2OC)CC1=O (configuration not stated) 10 µM [inhibitor, partial curve]
O=C(Nc1ccc(Cl)cc1)OC(CN1CCCCC1)C(F)(F)F (configuration not stated) 28.2 µM [inhibitor, single point]
O=S(=O)(Nn1c(O)c(C=C2N=c3ccccc3=N2)sc1=S)c1ccccc1 10 µM [inhibitor, partial curve]
COc1cccc(CN(C)Cc2c(O)ccc3ccccc23)c1 11.2 µM [inhibitor, partial curve]
CCOC(=O)c1ccoc1CN1CCN(S(=O)(=O)c2ccc(C)c(C)c2)CC1 11.2 µM [inhibitor, single point]
Cc1ccc(S(=O)(=O)Nc2cccc(-c3ccc(N4CCCCCC4)nn3)c2)c(C)c1 11.2 µM [inhibitor, partial curve, poor fit]
O=C(NCc1ccc(F)cc1)c1cc(C2CCCN(C(=O)C3CCCCC3)C2)on1 (configuration not stated) 28.2 µM [inhibitor, single point]
CC(C)(C)C(=O)O/N=C(\N)c1ccc(Oc2cc(Cl)cc(Cl)c2)c([N+](=O)[O-])c1 7.94 µM [inhibitor, partial curve, poor fit]
Cc1ccccc1CN1CCC(CNC(=O)c2cc3ccc4cccnc4c3[nH]2)CC1 3.55 µM [inhibitor, partial curve, poor fit]
O=C(CCc1c[nH]c2ccccc12)N1CCN(c2ccc(O)cc2)CC1 17.8 µM [inhibitor, partial curve, poor fit]

Activity change, negative = inhibition, inactive:
CC(=O)N1CCN(CC(=O)Nc2cc([N+](=O)[O-])ccc2Cl)CC1 5.89%
O=C(Cc1ccccc1[N+](=O)[O-])NCC1(c2cccc3c2OCO3)OCCO1 -1.02%
C=CCn1c(N)c(C(=O)NCCC2=CCCCC2)sc1=S -5.83%
O=C(CSc1nnc(-c2ccc(Cl)cc2)n1Cc1ccco1)c1cccs1 -0.0479%
CCOc1ccc(NS(=O)(=O)c2ccc3[nH]cc(C(=O)N4CCCC4)c(=O)c3c2)cc1 6.98%
Fc1ccccc1Nc1n[nH]c(=S)s1 24.6% [at 7.66 µM]
CCOC(=O)c1cnc2c(C)cccc2c1NCCCN1CCOCC1 11.6%
O=C(CSc1ncccn1)N(Cc1cccnc1)C(CCc1ccccc1)c1nc2ccccc2[nH]1 (configuration not stated) 12.2%
Cc1nc(SCC(=O)Nc2cccc(Cl)c2)n[nH]1 1.51%
CC(C)NC(=O)Cc1csc2nc(-c3ccccc3)cn12 6.63%
O=C(C1CCCN(S(=O)(=O)c2ccc(F)cc2)C1)N1CCOCC1 (configuration not stated) 6.71%
CCOc1ccc(N2C(=O)Nc3ccccc3C2(O)C(=O)NCc2ccc(C)cc2)cc1 (configuration not stated) 56.2%
